Out of some 220,000 compounds screened, about 5,700 (2.6%) were called active. Inconclusive results, whose numbers are uncertain, are shown with a selection of clear calls. Calls come from the whole dose curve; as a rule, active = well fitted inhibition curve with a large enough effect; inconclusive = small, poorly fitted or top-dose-only effect; inactive = no such curve, though single readings can be large or run the other way. Where the call is inconclusive, the potency comes from a doubtful curve fit.
Each compound was assayed against Lysine-specific demethylase 5B (Homo sapiens) (UniProt Q9UGL1) (assay: Primary screen for KDM5B Histone Demethylases FDH-coupled qHTS). Conditions: FDH-coupled NADH fluorescence (FDH is formaldehyde dehydrogenase); activity change, negative = inhibition: at 57.7 µM (top of the series) unless noted.
UniProt Q9UGL1, sequence (Q9UGL1 whole entry, looked up): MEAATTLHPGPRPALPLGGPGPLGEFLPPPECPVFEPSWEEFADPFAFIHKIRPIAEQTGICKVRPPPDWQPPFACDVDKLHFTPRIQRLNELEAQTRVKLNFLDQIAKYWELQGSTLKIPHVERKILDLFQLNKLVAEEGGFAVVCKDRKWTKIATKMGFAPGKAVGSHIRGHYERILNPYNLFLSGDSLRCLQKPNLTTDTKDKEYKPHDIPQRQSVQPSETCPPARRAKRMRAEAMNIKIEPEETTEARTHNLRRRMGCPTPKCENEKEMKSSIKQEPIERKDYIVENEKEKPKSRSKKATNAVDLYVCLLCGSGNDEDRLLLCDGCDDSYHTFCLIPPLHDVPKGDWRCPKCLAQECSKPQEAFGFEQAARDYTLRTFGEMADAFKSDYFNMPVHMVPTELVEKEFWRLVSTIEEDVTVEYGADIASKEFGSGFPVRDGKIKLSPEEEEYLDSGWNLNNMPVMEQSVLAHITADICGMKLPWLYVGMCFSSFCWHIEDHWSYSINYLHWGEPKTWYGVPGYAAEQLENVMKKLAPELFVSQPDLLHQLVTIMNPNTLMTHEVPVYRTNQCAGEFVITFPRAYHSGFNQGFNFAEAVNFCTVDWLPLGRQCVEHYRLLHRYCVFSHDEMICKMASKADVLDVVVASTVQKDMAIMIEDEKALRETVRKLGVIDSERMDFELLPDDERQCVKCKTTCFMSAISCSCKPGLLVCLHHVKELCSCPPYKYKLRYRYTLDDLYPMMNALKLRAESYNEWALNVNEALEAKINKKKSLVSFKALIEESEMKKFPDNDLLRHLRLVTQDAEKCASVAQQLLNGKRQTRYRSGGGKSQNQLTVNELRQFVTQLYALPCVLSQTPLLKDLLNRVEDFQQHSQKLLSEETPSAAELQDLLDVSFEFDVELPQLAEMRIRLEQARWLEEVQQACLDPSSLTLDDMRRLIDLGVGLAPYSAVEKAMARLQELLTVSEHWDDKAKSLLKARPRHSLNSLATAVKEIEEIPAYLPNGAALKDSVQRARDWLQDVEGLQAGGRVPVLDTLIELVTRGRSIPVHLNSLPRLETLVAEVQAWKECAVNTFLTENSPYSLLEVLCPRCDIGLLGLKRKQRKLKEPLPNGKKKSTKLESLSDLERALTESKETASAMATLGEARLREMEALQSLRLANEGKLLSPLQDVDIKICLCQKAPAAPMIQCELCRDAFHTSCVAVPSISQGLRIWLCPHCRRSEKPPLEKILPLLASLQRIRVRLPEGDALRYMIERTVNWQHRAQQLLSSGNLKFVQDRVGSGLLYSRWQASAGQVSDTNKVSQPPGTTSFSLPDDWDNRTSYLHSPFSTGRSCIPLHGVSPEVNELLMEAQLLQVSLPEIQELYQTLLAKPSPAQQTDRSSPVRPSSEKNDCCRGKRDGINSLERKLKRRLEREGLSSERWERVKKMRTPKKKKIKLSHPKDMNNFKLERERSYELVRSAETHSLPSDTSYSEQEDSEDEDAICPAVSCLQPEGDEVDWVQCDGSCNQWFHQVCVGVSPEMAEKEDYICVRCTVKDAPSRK
Summary of the method: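 KDM5BΔAP (200 nM final) in 50 mM HEPES pH 7.5, 0.01% Tween-20 was preincubated 10 min at RT with compound over a concentration range. Substrate mix (H3K4me3 12.5 µM, α-KG 25 µM, Fe²⁺, ascorbate, NAD⁺, FDH) was added, and NADH fluorescence change over 30 min gave dose-response curves.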
With COc1ccccc1-n1c(-c2cc(-c3ccco3)[nH]n2)n[nH]c1=S the Potency was inconclusive: 35.5 µM [inhibitor, single point]. With CCc1nn2c(=O)cc(COC(=O)COc3ccc(OC)cc3)nc2s1 the Potency was inconclusive: 20 µM [inhibitor, partial curve, poor fit]. For Cc1c(C(=O)Nc2cccc(C(F)(F)F)c2)oc2ccc3c(c12)C(=O)CC(C)(C)O3, the Potency was inconclusive: 25.1 µM [inhibitor, partial curve, poor fit]. CC1=C[C@@H](CN2CCC(CO)CC2)[C@H](C(C)C)C[C@H]1Cc1nnc(-c2ccncc2)o1 was tested, and the Potency was “inactive”. With CCc1noc(-c2ccn3c(CNC(=O)c4ccccc4C)nnc3c2)n1 the Potency was “inactive”. With CC1Cc2c([nH]c3ccccc23)C2c3ccccc3CN12 (stereo not given) the Potency was inconclusive: 14.1 µM [inhibitor, partial curve, poor fit]. For Cc1noc(C)c1Cc1ccc(C(=O)NC2CCc3nnc(C)n3CC2)o1 (stereo not given), the Potency was “inactive”. In the case of COc1ccccc1-c1cnc2n[nH]c(-c3ccc4c(c3)OCO4)c2n1, the Potency is reported as “inactive”. CN1C(=O)CO[C@H](c2ccc(NC(=O)c3ccc(-c4ccccc4)cc3)cc2)[C@H]1CO was tested, and the Potency was inconclusive: 31.6 µM [inhibitor, partial curve, poor fit]. CCCCCC(=O)Nc1nc2c(s1)C[C@@H]1[C@](C)(CO)[C@H](O)CC[C@@]1(C)[C@@H]2CC(=O)N[C@H](C)c1ccccc1 was tested, and the Potency was “inactive”. COc1cccc(NCc2nnc(C(=O)N3CCC[C@@H]3c3cccc(F)c3)n2-c2ccccc2)c1 was tested, and the Potency was “inactive”. With O=C1NC2(CCCN(Cc3cncs3)C2)COc2ccccc21 (stereo not given) the Potency was inconclusive: 22.4 µM [inhibitor, partial curve]. CC(=O)c1ccc(S(=O)(=O)N2CCC(C(=O)Nc3nc4c(s3)CCC4)CC2)cc1 was tested, and the Potency was “inactive”. With O=C1CCC2(C(=O)NCC3CC3)CCCC=C2N1c1ccccc1 (stereo not given) the Potency was inconclusive: 31.6 µM [inhibitor, partial curve, poor fit]. In the case of CCOc1ccc(CCNC(=O)c2cn(C)c3ccc(S(=O)(=O)N4CCCCC4)cc3c2=O)cc1OCC, the Potency is reported as inconclusive: 44.7 µM [inhibitor, single point]. In the case of CCOCC1(c2nc3c([nH]2)CCCNC3=O)CCC1, the Potency is reported as inconclusive: 20 µM [inhibitor, partial curve, poor fit]. Cc1nc([C@@H]2CN(C(=O)c3nccc4ccccc34)C[C@H]2C(N)=O)n[nH]1 was tested, and the Potency was inconclusive: 8.91 µM [inhibitor, partial curve, poor fit]. For O=C(c1ccc(-c2ncc3cnc(C4=CCOCC4)cn23)cc1)N1CC[S+](=O)([O-])CC1, the Potency was active: 35.5 µM. In the case of COC(=O)[C@@H]1Cc2c([nH]c3ccccc23)[C@H]2C[C@@H](NCc3cccnc3)C[C@@H](c3ccc(C(F)(F)F)cc3)N21, the Potency is reported as inconclusive: 3.16 µM [inhibitor, partial curve, poor fit]. In the case of CCOC(=O)c1cnc(Nc2ccccc2OC)c2ccccc12, the Potency is reported as “inactive”. O=C1COc2ccc(Nc3cccnc3)nc2CN1Cc1ccc(C(F)(F)F)cc1 was tested, and the Potency was inconclusive: 35.5 µM [inhibitor, single point]. In the case of CCOCCCNc1nc2ccccc2nc1NS(=O)(=O)c1ccccc1, the Potency is reported as inconclusive: 39.8 µM [inhibitor, single point]. For N#Cc1ccc(Cl)cc1N=C/C(Br)=C/c1ccccc1, the Potency was inconclusive: 10 µM [inhibitor, partial curve, poor fit]. In the case of Clc1cccc(-c2ccc(CNCCSc3nnnn3-c3ccccc3)o2)c1, the Potency is reported as inconclusive: 44.7 µM [inhibitor, single point]. For COc1cccc(CNC(=O)c2ccc3c(c2)c(C)c(C)n3Cc2ccccc2)c1, the Potency was inconclusive: 12.6 µM [inhibitor, partial curve, poor fit]. With COCC(=O)N[C@H]1C[C@@H](CO)N(Cc2ccc(C#N)cc2)C1 the Potency was inconclusive: 39.8 µM [inhibitor, partial curve, poor fit]. For CCOc1ccccc1N(CC)C(=O)Cn1ncc2c([nH]c3ccccc32)c1=O, the Potency was inconclusive: 28.2 µM [inhibitor, partial curve, poor fit]. For Cn1c(=O)c2c(ncn2Cc2ccc(Br)cc2)n(C)c1=O, the Potency was “inactive”. COc1ccc(-c2c(C)c3ccc(OC(=O)c4ccco4)cc3oc2=O)cc1 was tested, and the Potency was inconclusive: 10 µM [inhibitor, partial curve, poor fit]. With COC(=O)C1=C(C)N=C2SC=C(CC(=O)NCc3ccco3)N2C1c1cccc(OC)c1 (stereo not given) the Potency was inconclusive: 17.8 µM [inhibitor, partial curve]. With CC(C)N(CCNC(=O)c1cc(C2CC2)nc2ccccc12)C(C)C the Potency was inconclusive: 28.2 µM [inhibitor, partial curve, poor fit]. In the case of O=C1CCN(C(=O)C2CCN(C(=O)c3ccc4ccccc4n3)CC2)CCCCCCN1, the Potency is reported as inconclusive: 25.1 µM [inhibitor, partial curve, poor fit]. With Cn1ccc2c(C(=O)NCc3cccnc3)nc(-c3cccc4cc[nH]c34)cc21 the Potency was active: 35.5 µM. COc1cc(Cl)c(C)cc1NC(=O)C1CCN(c2nc3ccccc3n3cccc23)CC1 was tested, and the Potency was inconclusive: 7.08 µM [inhibitor, partial curve, poor fit]. For O=C(c1ccc(F)c(F)c1)N1CCN(c2cc(-c3cccs3)[nH]n2)CC1, the Potency was inconclusive: 22.4 µM [inhibitor, single point]. In the case of COc1ccc(-c2cc(-c3c(C)noc3C)c3cncn3c2)cc1OC, the Potency is reported as inconclusive: 39.8 µM [inhibitor, single point]. With O=C(c1ccc(F)cc1)N1CCn2c(nn(-c3ccncc3)c2=O)C1 the Potency was “inactive”. For Cc1ccc(OCc2nc(C3CN(C(=O)c4cc(C)n(C)n4)C3)no2)cc1, the Potency was “inactive”. For c1cc(N2CCOCC2)ncc1-c1noc([C@@H]2CCCN2)n1, the Potency was inconclusive: 35.5 µM [inhibitor, single point]. With CCCCCC(=O)Nc1ccc(-c2nc3cc(OC)ccc3o2)cc1 the Potency was “inactive”. Cc1ccc(NC(=O)C(Sc2ccccc2)c2ccccc2)c(C)c1 (stereo not given) was tested, and the Potency was “inactive”. In the case of Cc1cc(NC(=O)[C@@H]2CCCN2S(=O)(=O)c2ccc(OC(C)C)cc2)no1, the Potency is reported as “inactive”. Cn1c(Cn2cccn2)nnc1C1CCCN(Cc2nc(C(N)=O)no2)C1 (stereo not given) was tested, and the Potency was inconclusive: 7.08 µM [inhibitor, partial curve, poor fit]. In the case of CN(CC(=O)Nc1ccc2c(c1)OC1(CCCCC1)O2)Cc1cccs1, the Potency is reported as “inactive”. For C=CCNC(=O)N[C@H]1[C@H](O)[C@@H](N2CCCC2)[C@@H]2OC[C@H]1O2, the Potency was inconclusive: 35.5 µM [inhibitor, single point]. In the case of CCCSc1ncc(Cl)c(C(=O)Nc2ccc(S(=O)(=O)N(C)c3ccccc3)cc2)n1, the Potency is reported as inconclusive: 17.8 µM [inhibitor, partial curve, poor fit]. In the case of CCN(CCCNC(=O)Cn1ncc2c3ccccc3n(C)c2c1=O)Cc1ccccc1, the Potency is reported as inconclusive: 28.2 µM [inhibitor, partial curve, poor fit]. COc1ccc(COC(=O)C2=C(C)NC3=C(C(=O)CCC3)C2c2cccc(OC)c2)cc1 (stereo not given) was tested, and the Potency was inconclusive: 39.8 µM [inhibitor, partial curve, poor fit]. For CCOCCCNC(=O)N1c2ccccc2CC1c1nc(C(C)C)no1 (stereo not given), the Potency was inconclusive: 20 µM [inhibitor, partial curve, poor fit]. In the case of COc1ccc2[nH]c(=O)c(CCC(=O)NCC(N)=O)cc2c1, the Potency is reported as inconclusive: 28.2 µM [inhibitor, partial curve, poor fit]. In the case of COc1cc(Cl)c(S(=O)(=O)NCCc2c(C)[nH]c3c(C)cccc23)cc1Cl, the Potency is reported as inconclusive: 1.12 µM [inhibitor, partial curve, poor fit]. COc1cc(F)ccc1-c1ccnc2nc(C(C)C)nn12 was tested, and the Potency was active: 28.2 µM. In the case of CC(C)Cn1cc(NC(=O)N2CCN(c3cccc(Cl)c3)CC2)c2ccccc2c1=O, the Potency is reported as inconclusive: 28.2 µM [inhibitor, partial curve, poor fit]. With Cc1ccc(C)c(N2CCN(S(=O)(=O)c3ccc4[nH]c5c(c4c3)CCCCC5)CC2)c1 the Potency was inconclusive: 15.8 µM [inhibitor, partial curve, poor fit]. For O=C(C1CC1)N1CCCC(CN2CCOCC2)CC1 (stereo not given), the Potency was “inactive”. For CC(C)CNC(=O)c1ccc(NC(=O)C2CCCCC2)cc1, the Potency was “inactive”. COc1cccc(-c2cccc(C(=O)N3CCC4(CCCN(C)C4=O)C3)c2)c1 (stereo not given) was tested, and the Potency was “inactive”. For COc1ccccc1C(=O)NCCn1cc(SCC(=O)Nc2ccccc2F)c2ccccc21, the Potency was inconclusive: 6.31 µM [inhibitor, partial curve, poor fit]. With CCOc1ccc(C(C)NC(=O)c2snnc2CC)cc1OCC (stereo not given) the Potency was “inactive”. For Cc1ccc(CN2CCc3c(cc(C(=O)O)n3C)C2)cc1, the Potency was inconclusive: 22.4 µM [inhibitor, single point]. In the case of CCC(=O)N1CCc2c(sc3ncnc(N(C)Cc4ccccc4)c23)C1, the Potency is reported as inconclusive: 31.6 µM [inhibitor, single point]. For COc1ccc(S(=O)(=O)Nc2cc(C)cc(C)c2)c2cccnc12, the Potency was “inactive”. With CN(CC(=O)Nc1ccccc1C(F)(F)F)C(=O)Cc1ccc2ccccc2c1 the Potency was “inactive”. Cc1ccc(NC(=O)Cc2ccc(-n3c(C)nc4cccnc43)cc2)c(Cl)c1 was tested, and the activity change, negative = inhibition was inconclusive: -33.9% [inhibitor]. In the case of CCCCN(CC)C(=O)CSc1nc2n[nH]c(C)c2c(=N)n1-c1cccc(Cl)c1, the Potency is reported as inconclusive: 31.6 µM [inhibitor, partial curve, poor fit].
Note: nearly all actives have a fitted effect of over 70% in size.
Potency is the fitted concentration of half-maximal effect; tags give direction and shape of the fitted curve.
Throughout, for activity change, negative = inhibition: 0% is about no effect.
